# The list shows a part of the results. Construct or isoform of the protein are uncertain.
# Molecular target: GST-SBP-ILF3 (Homo sapiens) (UniProt Q12906)
# Experiment: targeted RNA Bind-n-Seq
# Settings: RBNS binding buffer: 25 mM Tris pH 7.5, 150 mM KCl, 3 mM MgCl2, 0.1% Tween, 0.5 mg/mL BSA, 1 mM DTT; 27 nM protein, 750 pM RNA pool; temperature not stated; high values mean tight binding; sequences stand for … in GGGUAAAAGCGAGGUGAA…CGGGACAAGUAUUAUGGG
row,Sequence,binding signal (log2 fold change)
1,UUUUUUUUUUGAGAAGGGGUCCUUCUCCUA [tttttgagapaired],0.163
2,GGUGUUGGUGUUGGCUUCUAACACCAGCGC [gtspaired],-0.735
3,GGUGUUGGUGUUGGACCCUAACACCGAUAC [gtspaired],-0.512
4,UUUUUUUUUUGAGAUGGAAACCAUUUCCGG [tttttgagapaired],0.249
5,UUUUUUUUUUGAGAGGGUAGCCCUCUCCGG [tttttgagapaired],0.671
6,UUUUUUUUUUGAGAAGGAAUCCUUCUCCGG [tttttgagapaired],-0.488
7,UUUUUUUUUUGAGACUGUAGCAGUCUCCUA [tttttgagapaired],0.538
8,UUUUUUUUUUGAGACGGAGACUGUCUCCAG [tttttgagapaired],1.01
9,GUGUGUGGUGUUGGAGUCUAACACCGCACG [gtspaired],-0.546
10,UUUUUUUUUUGAGAUGGGGUCCAUUUCCUA [tttttgagapaired],0.612
11,GUGUUGUGUGUUGGAACCUAACACACAGCA [gtspaired],-0.516
12,UUUUUUUUUUGAGACCGUAUCGGUCUCCAG [tttttgagapaired],0.649
13,UUUUUUUUUUGAGAUCGGGGCGAUCUUCUG [tttttgagapaired],0.492
14,GUUGGUGGUGUUGGUCCCUAACACCGCCAA [gtspaired],-0.0204
15,UUUUUUUUUUGAGAUGGAUCCUAUCUCCUA [tttttgagapaired],-0.129
16,UUUUUUUUUUGAGAGGGGUACCCUCUCCAG [tttttgagapaired],0.327
17,UUUUUUUUUUGAGACUGCUUCAGUCUUCUA [tttttgagapaired],0.027
18,GUGUGUGGUGUUGGAAUCUAACACCGCACG [gtspaired],-1.07
19,UUUUUUUUUUGAGACGGUUUCUGUCUCCUG [tttttgagapaired],0.532
20,UUUUUUUUUUGAGAACGAAGCGUUCUCCAG [tttttgagapaired],0.0529
21,UUUUUUUUUUGAGAGGGCCCCCCUCUCCAG [tttttgagapaired],0.896
22,UUUUUUUUUUGAGAGCGAGACGUUCUUCUA [tttttgagapaired],0.32
23,UUUUUUUUUUGAGAUGGAACCCAUCUCCAG [tttttgagapaired],0.0277
24,GUGUUGUGUGUUGGAACCUAACACACAACG [gtspaired],-0.506
25,UUUUUUUUUUGAGACCGACACGGUCUUCUG [tttttgagapaired],0.691
26,GUGUGUUGUGUUGGAAUCUAACACAACGCG [gtspaired],-0.922

row,Sequence,binding signal (log2 fold change)
1,UUUUUUUUUUGAGAUGGAAUCUAUCUCCUA [tttttgagapaired],-0.135
2,UUUUUUUUUUGAGAGUGAUGCACUCUUCUA [tttttgagapaired],-0.0602
3,GGUGGUUGUGUUGGCGCCUAACACAGCUAC [gtspaired],-0.582
4,GUGUUGUGUGUUGGUCCCUAACACACAGCG [gtspaired],-0.454
5,GUGGUUGGUGUUGGCUUCUAACACCGACCG [gtspaired],-0.663
6,UUUUUUUUUUGAGACCGGAGCGGUUUCCAG [tttttgagapaired],0.777
7,UUUUUUUUUUGAGAGGGCGACCCUCUCCUG [tttttgagapaired],0.612
8,UUUUUUUUUUGAGACGGAUCCCGUCUCCUA [tttttgagapaired],0.646
9,UUUUUUUUUUGAGAGGGAUACCCUUUCCGG [tttttgagapaired],0.133
10,UUUUUUUUUUGAGAGGGAUGCCCUCUCCUG [tttttgagapaired],0.447
11,GUGUGUGGUGUUGGACCCUAACACCGCAUA [gtspaired],-0.115
12,UUUUUUUUUUGAGACUGGAGCAGUCUCCUG [tttttgagapaired],0.845
13,UUUUUUUUUUGAGAUCGAGACGAUCUCCGG [tttttgagapaired],0.16
14,UUUUUUUUUUGAGAUGGUGGCUAUCUCCAG [tttttgagapaired],0.886
15,UUUUUUUUUUGAGAGCGAGUCGCUCUUCUA [tttttgagapaired],0.285
16,GGUGGUUGUGUUGGCCUCUAACACAGCCGC [gtspaired],-0.735
17,UUCUCUCUUCCUCCAAUGGAGGAGGAGGGA [ctspaired],-0.0298
18,GUGGUGUGUGUUGGCUUCUAACACACAUCG [gtspaired],-0.524
19,UUUUUUUUUUGAGAUGGGGUCCAUCUCCUG [tttttgagapaired],0.43
20,GUGUGUUGUGUUGGAGCCUAACACAGCGCG [gtspaired],-0.642
21,UUUUUUUUUUGAGAGGGAGCCCCUCUUCUA [tttttgagapaired],0.406
22,UUUUUUUUUUGAGAUCGGGCCGAUCUCCAG [tttttgagapaired],0.718
23,UUUUUUUUUUGAGAACGGUGCGUUCUCCUA [tttttgagapaired],0.11
24,UUUUUUUUUUGAGACGGGGACCGUCUCCUA [tttttgagapaired],0.608
25,UUUUUUUUUUGAGACGGGAGCCGUUUCCUA [tttttgagapaired],0.481
26,UUUUUUUUUUGAGAGGGCAACCCUUUCCAG [tttttgagapaired],0.365

row,Sequence,binding signal (log2 fold change)
1,UUUUUUUUUUGAGAACGGGCCGUUCUCCAG [tttttgagapaired],0.575
2,UUUUUUUUUUGAGAUCGGGACGAUCUCCGG [tttttgagapaired],0.0605
3,UUUUUUUUUUGAGAUGGGAUCCAUCUCCUA [tttttgagapaired],0.00666
4,UUUUUUUUUUGAGAGUGAUACACUCUUCUG [tttttgagapaired],0.0809
5,UUUUUUUUUUGAGACUGACACAGUCUCCAG [tttttgagapaired],0.355
6,UUUUUUUUUUGAGAUCGGAACGAUCUCCUG [tttttgagapaired],0.332
7,UUCUCUCUUCCUCCACGGGAGGAGGGGAGA [ctspaired],-0.436
8,GGUUGGUGUGUUGGCUUCUAACACAUCAGC [gtspaired],-0.533
9,GUGUUGUGUGUUGGAGCCUAACACACAGCA [gtspaired],-0.416
10,UUUUUUUUUUGAGAUGGUAGCUAUCUCCGG [tttttgagapaired],0.506
11,UUCUUCUCUCCUCCGCGGGAGGGGGGAAGA [ctspaired],-0.617
12,UUUUUUUUUUGAGACUGUAACAGUUUCCAG [tttttgagapaired],0.439
13,UUUUUUUUUUGAGAGGGAGACCCUUUCCGG [tttttgagapaired],0.283
14,UUUUUUUUUUGAGAGUGCGACAUUCUCCAG [tttttgagapaired],0.27
15,UUUUUUUUUUGAGAUCGAGACGAUCUCCAG [tttttgagapaired],0.238
16,UUUUUUUUUUGAGACCGAAGCGGUUUCCGG [tttttgagapaired],0.851
17,UUUUUUUUUUGAGACGGGCUCCGUCUCCGG [tttttgagapaired],0.425
18,GGUUGGUGUGUUGGCGCCUAACACAUCGAC [gtspaired],-0.442
19,GUUGGUGGUGUUGGCUCCUAACACCGCCAG [gtspaired],-0.309
20,GUGGUGUGUGUUGGAUCCUAACACACGCUA [gtspaired],-0.622
21,UUUUUUUUUUGAGAGUGAGACACUCUCCUG [tttttgagapaired],0.153
22,UUUUUUUUUUGAGACUGCUCCAGUCUCCUA [tttttgagapaired],0.587
23,UUUUUUUUUUGAGAUCGUUCCGAUCUCCAG [tttttgagapaired],0.366
24,UUUUUUUUUUGAGAGCGUACCGCUCUCCGG [tttttgagapaired],0.282
25,UUUUUUUUUUGAGACGGCUACCGUCUCCAG [tttttgagapaired],0.513
26,UUUUUUUUUUGAGAGGGAUGCCCUCUCCUA [tttttgagapaired],0.364

row,Sequence,binding signal (log2 fold change)
1,UUUUUUUUUUGAGAGGGGGCCCCUCUCCGG [tttttgagapaired],1.17
2,UUUUUUUUUUGAGAGGGAGGCCCUCUCCAG [tttttgagapaired],0.611
3,GGUUGUUGUGUUGGCUCCUAACACAGCAAC [gtspaired],-0.347
4,GGUUGUUGUGUUGGUCCCUAACACAACAGC [gtspaired],-0.213
5,GGUGGUGGUGUUGGACCCUAACACCGCUAC [gtspaired],-0.633
6,GUGUGGUGUGUUGGCGUCUAACACACCGCG [gtspaired],-0.541
7,UUUUUUUUUUGAGACUGAGUCAGUCUCCUA [tttttgagapaired],0.154
8,UUUUUUUUUUGAGAGGGGACCCCUCUCCUA [tttttgagapaired],0.638
9,UUUUUUUUUUGAGACCGACUCGGUCUCCUA [tttttgagapaired],0.288
10,UUUUUUUUUUGAGACUGGACCAGUCUCCGG [tttttgagapaired],0.498
11,UUUUUUUUUUGAGACCGCUACGGUCUCCGG [tttttgagapaired],0.373
12,UUUUUUUUUUGAGAGCGAUACGCUCUUCUA [tttttgagapaired],0.113
13,UUUUUUUUUUGAGAGCGAGACGUUCUCCUA [tttttgagapaired],0.0647
14,UUUUUUUUUUGAGAUGGCAACUAUCUCCAG [tttttgagapaired],0.452
15,UUUUUUUUUUGAGACGGAAACCGUCUUCUG [tttttgagapaired],0.541
16,UUUUUUUUUUGAGAUGGAUCCCAUCUCCAG [tttttgagapaired],0.31
17,GGUGUGUGUGUUGGUGUCUAACACAUACAC [gtspaired],-0.542
18,UUUUUUUUUUGAGACCGCGACGGUCUCCUG [tttttgagapaired],0.458
19,UUUUUUUUUUGAGACCGGAGCGGUCUCCUA [tttttgagapaired],0.404
20,UUUUUUUUUUGAGAGGGAGCCCCUCUCCGG [tttttgagapaired],0.539
21,GUGUGGUGUGUUGGAGCCUAACACAUCACG [gtspaired],-0.785
22,UUUUUUUUUUGAGACCGGAACGGUUUCCAG [tttttgagapaired],0.431
23,UUUUUUUUUUGAGAUGGUCUCCAUCUCCUA [tttttgagapaired],0.12
24,UUUUUUUUUUGAGACGGAAUCCGUUUCCUG [tttttgagapaired],0.268

# Reference: publication PMC5892938
